From PubChem BioAssay AID588591 (National Center for Advancing Translational Sciences (NCATS), 2011)
Among all 390,000 compounds or so, about 4,700 (1.2%) were called active. Inconclusive means that the source gave no clear call. Such entries were picked first, then a sample of the others. Calls come from the whole dose curve; as a rule, active = well fitted inhibition curve with a large enough effect; inconclusive = small, poorly fitted or top-dose-only effect, or another doubt; inactive = no such curve, though single readings can be large or run the other way. Where the call is inconclusive, the potency comes from a doubtful curve fit.

Biological target: DNA polymerase eta (Homo sapiens) (UniProt Q9Y253)
Test: qHTS for Inhibitors of Polymerase Eta
Details: recombinant Pol eta, fluorescent DNA replication assay; series mostly up to 114 µM; activity change, negative = inhibition: at the top concentration
Summary of the method: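 Fluorescent replication assay: 50 nM final substrate added after a 15 min room-temperature compound preincubation with 10 nM enzyme. Signal taken at 0 min and again at 10 min.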
% is set by controls: 0 for no effect and ±100 for the full control effect; potency is the fitted concentration of half-maximal effect; tags give direction and shape of the fitted curve.

UniProt Q9Y253, sequence (Q9Y253 whole entry, looked up): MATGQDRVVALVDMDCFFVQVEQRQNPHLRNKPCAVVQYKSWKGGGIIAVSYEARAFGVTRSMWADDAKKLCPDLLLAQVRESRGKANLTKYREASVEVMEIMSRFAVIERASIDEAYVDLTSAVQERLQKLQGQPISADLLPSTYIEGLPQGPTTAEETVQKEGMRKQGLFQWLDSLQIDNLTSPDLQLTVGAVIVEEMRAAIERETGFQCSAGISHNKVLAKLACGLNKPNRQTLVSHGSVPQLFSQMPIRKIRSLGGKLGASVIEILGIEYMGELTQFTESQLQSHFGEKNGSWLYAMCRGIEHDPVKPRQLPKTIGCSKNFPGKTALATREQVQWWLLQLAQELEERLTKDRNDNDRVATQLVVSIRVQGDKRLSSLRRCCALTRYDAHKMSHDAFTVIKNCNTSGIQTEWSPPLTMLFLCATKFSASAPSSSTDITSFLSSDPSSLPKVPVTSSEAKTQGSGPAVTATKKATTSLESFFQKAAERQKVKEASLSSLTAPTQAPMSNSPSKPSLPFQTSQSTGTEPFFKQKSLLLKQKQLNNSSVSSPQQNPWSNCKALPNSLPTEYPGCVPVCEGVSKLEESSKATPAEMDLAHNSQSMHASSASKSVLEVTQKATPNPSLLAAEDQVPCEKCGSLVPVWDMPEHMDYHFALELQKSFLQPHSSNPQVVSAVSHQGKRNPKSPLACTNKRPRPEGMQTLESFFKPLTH

| Compound | Potency | activity change, negative = inhibition |
| --- | --- | --- |
| COc1cccc(N=C2NC(=O)/C(=C/c3cc([N+](=O)[O-])ccc3O)S2)c1 | active: 28.2 µM |  |
| Cc1cccc2c1c1ccc3c(c1n2C)C(=O)C=CC3=O | inconclusive: 44.7 µM [inhibitor, partial curve, poor fit] |  |
| O=C(O)c1ccccc1-c1ccc(/C=C/c2cc(C(F)(F)F)[nH]c(=O)n2)o1 | active: 50.1 µM |  |
| CCCCn1cc(S(=O)(=O)c2ccc(C)cc2)c(=O)c2cc(F)c(N3CCCCC3)cc21 |  | inactive: -10.5% |
| Cc1ccc(NC(=S)N(CCN(C)C)C(C)c2ccco2)cc1C (stereo not given) | inconclusive: 22.4 µM [inhibitor, partial curve, poor fit] |  |
| CCOC(=O)c1cnc2cc(C(F)(F)F)ccc2c1Nc1cc(C)ccc1OC |  | inactive: 1.13% |
| O=S(=O)(Nc1ccc(O)c(Sc2nc3ccccc3s2)c1)c1cc(Cl)ccc1Cl | active: 79.4 µM |  |
| Cn1c(SCc2cccc(Br)c2)nc2ccccc2c1=O | inconclusive: 100 µM [inhibitor, partial curve, poor fit] |  |
| O=C(O)c1cccc(S(=O)(=O)Nc2cccc(S(=O)(=O)N3CCCC3)c2)c1 | inconclusive: 17.8 µM [inhibitor, full curve, poor fit] |  |
| O=C(Nc1cccc(S(=O)(=O)N2CCCCC2)c1)C1CCC1 | inconclusive: 100 µM [inhibitor, partial curve, poor fit] |  |
| CC1=C(C#N)C(=O)NC(=O)/C1=C\c1ccc(-c2cc(C)c(C)cc2[N+](=O)[O-])o1 | inconclusive: 25.1 µM [inhibitor, full curve, poor fit] |  |
| NC1=NC(=O)/C(=C\c2ccco2)S1 | active: 17.8 µM |  |
| Cc1nc(-c2ccccc2)sc1C(=O)/C=C/c1ccc(Cl)cc1 | inconclusive: 1 µM [inhibitor, full curve] |  |
| CCc1ccc(NC(=O)C(=O)NCC(c2ccc3c(c2)OCO3)N2CCN(C)CC2)cc1 (stereo not given) |  | inactive: -19.4% |
| O=c1[nH]c(/C=C\c2cccc(F)c2)nc(O)c1[N+](=O)[O-] | inconclusive: 39.8 µM [inhibitor, single point] |  |
| O=C(CCCN1C(=O)/C(=C\c2ccco2)SC1=S)Nc1cccc2ccccc12 | inconclusive: 28.2 µM [inhibitor, partial curve, poor fit] |  |
| COc1ccc2c(c1)c(N1CCCC1=O)c(C(=O)Nc1ccc(OC)c(Cl)c1)n2C |  | inactive: -3.83% |
| CN1/C(=C\C(=O)c2cccc([N+](=O)[O-])c2)Sc2ccccc21 | inconclusive: 56.2 µM [inhibitor, partial curve, poor fit] |  |
| CCCC[n+]1ccn(-c2nc3ccccc3nc2[N-]S(=O)(=O)c2ccccc2)c1 |  | inactive: -7.05% |
| Cc1nn(CCCC(=O)Nc2ccccc2C(F)(F)F)c(=O)c2nn(-c3ccccc3)c(C)c12 |  | inactive: -16% |
| Nc1nnc(CC(=O)N/N=C/c2ccc(-c3ccccc3Cl)o2)s1 |  | inactive: -11.9% |
| COc1cccc(C(=O)Nc2cccc(-c3nnc(-c4ccco4)o3)c2)c1 | inconclusive: 39.8 µM [inhibitor, partial curve, poor fit] |  |

| Compound | Potency | activity change, negative = inhibition |
| --- | --- | --- |
| COc1cccc(Nc2ncccc2C(=O)NCc2ccccc2)c1 | inconclusive: 15.8 µM [inhibitor, full curve, poor fit] |  |
| COc1cc(NC(=O)c2noc3c2CC(C)CC3)c(OC)cc1Cl (stereo not given) |  | inactive: -0.172% |
| COc1ccc(CNC(=O)CSc2nnc3c(n2)[nH]c2ccc(F)cc23)cc1 | inconclusive: 17.8 µM [inhibitor, partial curve, poor fit] |  |
| Cn1cc(S(=O)(=O)N2CCc3ccccc32)cc1C(=O)Nc1ccc(Cl)cc1 | inconclusive: 56.2 µM [inhibitor, partial curve, poor fit] |  |
| Cc1nc(SCC(=O)O)c(C#N)c2c1CCCC2 | active: 7.94 µM |  |
| COc1cc(OC)cc(-c2nnc(Nc3nc4c(F)cccc4s3)o2)c1 | inconclusive: 79.4 µM [inhibitor, partial curve] |  |
| CCC(C)n1cnc2c(c1=O)c1nc3ccccc3nc1n2Cc1ccccc1OC (stereo not given) | inconclusive: 39.8 µM [inhibitor, single point] |  |
| Cc1ccc(C2=NN(C(=O)CSc3nc4ncc(Cl)cc4[nH]3)C(c3ccco3)C2)cc1 (stereo not given) |  | inactive: -3.68% |
| Nc1ccc2nc(-c3cccc(-c4nc5ccc(N)cc5[nH]4)c3)[nH]c2c1 | inconclusive: 44.7 µM [inhibitor, partial curve] |  |
| CC1(C)CC[C@]2(C(=O)O)CC[C@]3(C)C(=CC[C@@H]4[C@@]5(C)CC[C@H](O[C@@H]6O[C@H](C(=O)O)[C@@H](O)[C@H](O[C@@H]7OC[C@H](O)[C@H](O)[C@H]7O)[C@H]6O)C(C)(C)[C@@H]5CC[C@]43C)[C@@H]2C1 | active: 50.1 µM |  |
| Cc1csc(NC(=O)Nc2ccc(Cl)cc2)n1 | inconclusive: 22.4 µM [inhibitor, single point] |  |
| Cc1cc(=O)oc2c(CN3CCCC3)c(O)c(Cl)cc12 | inconclusive: 89.1 µM [inhibitor, partial curve, poor fit] |  |
| CCCCSc1n[nH]c(=S)c2nc[nH]c12 |  | inactive: -11.1% |
| CCOC(=O)c1c(-c2ccco2)csc1NC(=O)COC(=O)c1cnccn1 | active: 22.4 µM |  |
| COCn1c(COc2ccc3ccccc3c2)nc2ccccc21 | inconclusive: 89.1 µM [inhibitor, partial curve, poor fit] |  |
| COc1ccc(C(=O)NC(=S)Nc2ccc(NC(=O)c3ccco3)cc2)cc1[N+](=O)[O-] | inconclusive: 56.2 µM [inhibitor, partial curve, poor fit] |  |
| CC(C)CN(C(=O)/C=C/c1nc2ccccc2s1)C1CCS(=O)(=O)C1 (stereo not given) | inconclusive: 25.1 µM [inhibitor, single point] |  |
| COc1ccccc1NC(=O)c1cc2ccc(O)cc2o/c1=N\O | inconclusive: 25.1 µM [inhibitor, single point] |  |
| COc1cc(N=Cc2c(O)[nH]c3ccccc23)cc(OC)c1OC | inconclusive: 0.891 µM [inhibitor, full curve, poor fit] |  |
| O=[N+]([O-])c1cc(Cl)cc(/C=N/NC(=S)Nc2cc(S(=O)(=O)N3CCOCC3)ccc2Cl)c1O | active: 50.1 µM |  |
| CC(C)CCNC(=O)C1CCN(S(=O)(=O)c2ccc3c(c2)CC(C)N3C(=O)C2CCC2)CC1 (stereo not given) |  | inactive: -10% |
| CCOC(=O)c1cnc(-c2ccccc2)nc1Oc1ccccc1 | inconclusive: 12.6 µM [inhibitor, partial curve, poor fit] |  |

| Compound | Potency | activity change, negative = inhibition |
| --- | --- | --- |
| CS(=O)(=O)c1ccc2c(c1)sc1nc(=O)c(/C=C3/C=CC(=O)C(O)=C3)c(N)n12 | active: 0.794 µM |  |
| N#Cc1c(SCC(=O)Nc2nccs2)sc2c(O)cc(=O)[nH]c12 | active: 14.1 µM |  |
| Cc1c(C(=O)NNC(=O)c2csc(N3CCOCC3)n2)oc2ccc(Br)cc12 | active: 25.1 µM |  |
| COc1cc(NC(=O)COC(=O)Cc2ccc(-c3ccccc3)cc2)cc(OC)c1 | inconclusive: 15.8 µM [inhibitor, partial curve, poor fit] |  |
| Cc1ccc(-c2nnc(Nc3ccc(OCC(N)=O)cc3)c3ccccc23)cc1S(N)(=O)=O | inconclusive: 28.2 µM [inhibitor, full curve] |  |
| COC(=O)c1cc(NC(=O)c2ccccc2)c(=O)oc1/C=C/Nc1ccc(Oc2ccccc2)cc1 | inconclusive: 39.8 µM [inhibitor, partial curve] |  |
| CCC(C)NC(=O)c1c2c(nc3ccccc13)C(=O)N(C1CCCCC1)C2 (stereo not given) |  | inactive: -13.9% |
| CCCCNC(=S)Nc1ccc(C(F)(F)F)cc1 | inconclusive: 89.1 µM [inhibitor, partial curve, poor fit] |  |
| O=C1C=CC(=O)N1c1ccccc1N1C(=O)C=CC1=O | inconclusive: 39.8 µM [inhibitor, partial curve] |  |
| Cc1nc2sc3c(c2c(=O)o1)CCCC3 | inconclusive: 31.6 µM [inhibitor, single point] |  |
| O=C(O)C1CCN(c2ccc([N+](=O)[O-])cc2[N+](=O)[O-])CC1 | active: 25.1 µM |  |
| COc1ccc(CCNC(=O)c2ccc(-n3c(C)cc4c3CCC(C)C4)cc2)cc1OC (stereo not given) |  | inactive: -13.5% |
| O=C(COC(=O)c1cc(-c2ccco2)nc2ccccc12)NCc1ccccc1 | inconclusive: 31.6 µM [inhibitor, partial curve] |  |
| CC(C)CC(C(=O)OCC(=O)Nc1ncc(Cl)cc1Cl)N1C(=O)c2ccccc2C1=O (stereo not given) | inconclusive: 25.1 µM [inhibitor, single point] |  |
| CC1CC(C)CN(CC(=O)N2CCCc3c2c(=O)oc2ccc(OCc4ccccc4)cc32)C1 (stereo not given) | inconclusive: 50.1 µM [inhibitor, partial curve, poor fit] |  |
| O=c1cc(CN2CCCc3ccccc32)nc2sccn12 | inconclusive: 0.708 µM [inhibitor, full curve, poor fit] |  |
| COc1cccc(/C=c2\s/c(=C/C(=O)c3ccc(C)cc3)[nH]c2=O)c1OC | inconclusive: 15.8 µM [inhibitor, full curve, poor fit] |  |
| COc1ccc(/C=C2\SC(=S)N(CCC(=O)Nc3ccc(C(=O)O)cc3)C2=O)cc1 | inconclusive: 15.8 µM [inhibitor, full curve, poor fit] |  |
| CCOC(=O)c1c(S(=O)(=O)N2CCC(C(=O)NCc3cccc(OC)c3)CC2)c(C)n(C)c1C |  | inactive: -20.2% |
| Cc1nnc(NC(=O)Cc2cccs2)s1 | inconclusive: 79.4 µM [inhibitor, single point] |  |
| Cn1c(SCC(=O)c2ccc3c(c2)OCO3)nnc1-c1ccccn1 | inconclusive: 3.16 µM [inhibitor, partial curve, poor fit] |  |
